Laboratory results reported in ChEMBL document CHEMBL1201862, “PubChem BioAssay data set” (2004).
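Five compound concentrations were applied to cells in 96-well plates for 48 hours; endpoints were derived by simple linear interpolation of the resulting dose-response curve. GI50 = concentration required for 50% inhibition of growth.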 Activity calls are given as the source filed them. No stated cut-off is given here; in the data, active = GI50 up to about 1.1 µM and inactive = higher.

Assays:
Assay in all cases: DTP human tumour cell line panel, 48 h
KM12 = system: KM12
HCT-15 = system: HCT-15
NCI-H460 = system: NCI-H460
CCRF-CEM = system: CCRF-CEM
SNB-19 = system: SNB-19
MCF7 = system: MCF7
SF-295 = system: SF-295
SK-MEL-5 = system: SK-MEL-5
DMS-114 = system: DMS-114
OVCAR-8 = system: OVCAR-8
KM-20L2 = system: KM-20L2
Malme-3M = system: Malme-3M
NCI-H226 = system: NCI-H226
SW-620 = system: SW-620
SNB-78 = system: SNB-78
OVCAR-5 = system: OVCAR-5
NCI/ADR-RES = system: NCI/ADR-RES
COLO 205 = system: COLO 205
HL-60 = system: HL-60
HOP-62 = system: HOP-62
K562 = system: K562
RPMI-8226 = system: RPMI-8226
SK-MEL-28 = system: SK-MEL-28
U-251 = system: U-251
EKVX = system: EKVX
XF498 = system: XF498
HCT-116 = system: HCT-116
HOP-92 = system: HOP-92
OVCAR-3 = system: OVCAR-3
DMS-273 = system: DMS-273
MDA-N = system: MDA-N
DLD-1 = system: DLD-1
RXF 393 = system: RXF 393
SK-MEL-2 = system: SK-MEL-2
HOP-18 = system: HOP-18
CAKI-1 = system: CAKI-1
SR = system: SR
Hs-578T = system: Hs-578T
HCC 2998 = system: HCC 2998
IGROV-1 = system: IGROV-1
T47D = system: T47D
M14 = system: M14
UACC-62 = system: UACC-62
M19-MEL = system: M19-MEL
RXF 631 = system: RXF 631
LXFL 529 = system: LXFL 529
SN12C = system: SN12C
DU-145 = system: DU-145
ACHN = system: ACHN
SF-268 = system: SF-268
MDA-MB-231 = system: MDA-MB-231
MOLT-4 = system: MOLT-4
PC-3 = system: PC-3
786-0 = system: 786-0
NCI-H522 = system: NCI-H522
LOX IMVI = system: LOX IMVI
HT-29 = system: HT-29
UACC-257 = system: UACC-257
TK-10 = system: TK-10
UO-31 = system: UO-31
A549 = system: A549
SF-539 = system: SF-539
MDA-MB-435 = system: MDA-MB-435
OVCAR-4 = system: OVCAR-4
NCI-H23 = system: NCI-H23
SNB-75 = system: SNB-75
BT-549 = system: BT-549
A498 = system: A498

COc1c(O)cc2c(c1OC)-c1ccc(OC)c(=O)cc1[C@@H](NC(C)=O)CC2 [3-DESMETHYLCOLCHICIN]
GI50 (KM12): active: 0.0698 µM | GI50 (HCT-15): 0.356 µM | GI50 (NCI-H460): active: 0.092 µM | GI50 (CCRF-CEM): active: 0.0325 µM | GI50 (SNB-19): active: 0.191 µM | GI50 (MCF7): active: < 0.0312 µM | GI50 (SF-295): active: 0.0824 µM | GI50 (SK-MEL-5): active: < 0.0312 µM | GI50 (DMS-114): active: 0.0325 µM | GI50 (OVCAR-8): active: 0.118 µM | GI50 (KM-20L2): active: 0.064 µM | GI50 (Malme-3M): active: 0.0346 µM | GI50 (NCI-H226): active: 0.0895 µM | GI50 (SW-620): active: 0.0596 µM | GI50 (SNB-78): active: < 0.0312 µM | GI50 (OVCAR-5): inactive: 312 µM | GI50 (NCI/ADR-RES): inactive: 6.97 µM | GI50 (COLO 205): active: 0.0841 µM | GI50 (HL-60): active: < 0.0312 µM | GI50 (HOP-62): active: 0.22 µM | GI50 (K562): active: < 0.0312 µM | GI50 (RPMI-8226): active: 0.0325 µM | GI50 (SK-MEL-28): active: 0.0325 µM | GI50 (U-251): active: 0.0904 µM | GI50 (EKVX): active: 0.0601 µM | GI50 (XF498): active: 0.0415 µM | GI50 (HCT-116): active: 0.0873 µM | GI50 (HOP-92): active: < 0.0312 µM | GI50 (OVCAR-3): active: 0.0325 µM | GI50 (DMS-273): active: 0.0333 µM

COc1cc2c(c(OC)c1OC)-c1ccc(SC)c(=O)cc1[C@@H](NC(C)=O)CC2 [THIOCOLCHICINE]
GI50 (MDA-N): active: < 0.01 µM | GI50 (KM12): active: < 0.01 µM | GI50 (DLD-1): active: < 0.01 µM | GI50 (RXF 393): active: 0.215 µM | GI50 (HCT-15): 0.0125 µM | GI50 (SK-MEL-2): active: 0.0465 µM | GI50 (NCI-H460): active: < 0.01 µM | GI50 (CCRF-CEM): active: < 0.01 µM | GI50 (HOP-18): inactive: 23.2 µM | GI50 (CAKI-1): active: < 0.01 µM | GI50 (SR): active: < 0.01 µM | GI50 (SNB-19): active: 0.0346 µM | GI50 (Hs-578T): active: 0.155 µM | GI50 (HCC 2998): active: < 0.01 µM | GI50 (MCF7): active: < 0.01 µM | GI50 (SF-295): active: < 0.01 µM | GI50 (SK-MEL-5): active: < 0.01 µM | GI50 (IGROV-1): active: < 0.01 µM | GI50 (DMS-114): active: < 0.01 µM | GI50 (OVCAR-8): active: < 0.01 µM | GI50 (T47D): inactive: > 100 µM | GI50 (KM-20L2): active: < 0.01 µM | GI50 (M14): active: 0.0631 µM | GI50 (Malme-3M): active: < 0.01 µM | GI50 (UACC-62): active: < 0.01 µM | GI50 (NCI-H226): active: 0.0631 µM | GI50 (SW-620): active: < 0.01 µM | GI50 (M19-MEL): active: < 0.01 µM | GI50 (RXF 631): active: < 0.01 µM | GI50 (LXFL 529): active: < 0.01 µM | GI50 (SNB-78): active: < 0.01 µM | GI50 (NCI/ADR-RES): active: < 0.01 µM | GI50 (COLO 205): active: < 0.01 µM | GI50 (SN12C): active: 0.0151 µM | GI50 (DU-145): active: < 0.01 µM | GI50 (ACHN): active: 0.0114 µM | GI50 (SF-268): active: < 0.01 µM | GI50 (MDA-MB-231): active: < 0.01 µM | GI50 (MOLT-4): active: < 0.01 µM | GI50 (HL-60): active: < 0.01 µM | GI50 (HOP-62): active: < 0.01 µM | GI50 (PC-3): active: < 0.01 µM | GI50 (K562): active: < 0.01 µM | GI50 (786-0): active: < 0.01 µM | GI50 (NCI-H522): active: < 0.01 µM | GI50 (RPMI-8226): active: < 0.01 µM | GI50 (LOX IMVI): active: < 0.01 µM | GI50 (SK-MEL-28): inactive: 50.7 µM | GI50 (HT-29): active: < 0.01 µM | GI50 (UACC-257): inactive: 1.87 µM | GI50 (TK-10): inactive: > 10 µM | GI50 (UO-31): inactive: 1.26 µM | GI50 (A549): active: < 0.01 µM | GI50 (SF-539): active: < 0.01 µM | GI50 (U-251): active: < 0.01 µM | GI50 (EKVX): inactive: 14.4 µM | GI50 (XF498): active: 0.0155 µM | GI50 (MDA-MB-435): active: 0.0158 µM | GI50 (HCT-116): active: < 0.01 µM | GI50 (OVCAR-4): inactive: 20.7 µM | GI50 (NCI-H23): active: < 0.01 µM | GI50 (SNB-75): active: < 0.01 µM | GI50 (BT-549): active: 1 µM | GI50 (HOP-92): active: < 0.01 µM | GI50 (OVCAR-3): active: < 0.01 µM | GI50 (A498): active: < 0.01 µM | GI50 (DMS-273): active: < 0.01 µM
